Assay results from the antibiotic and cytotoxicity screens of Wong et al. (2023).
This is one part of the list.

Key:
[1] = system: HSkMC (human skeletal muscle cells); experiment: cytotoxicity call (relative viability < 0.9); conditions: 10 µM
[2] = system: S. aureus RN4220; experiment: growth inhibition call (relative growth <= 0.2); conditions: 50 µM

## CC(C)NC(=O)N(C)C[C@@H]1Oc2cc(C#Cc3ccccn3)ccc2S(=O)(=O)N([C@@H](C)CO)C[C@H]1C
[1]
  cytotoxicity call: inactive
[2]
  growth inhibition call: inactive

## COCCNC(=O)C[C@H]1CC[C@@H](NS(=O)(=O)c2ccc(C)cc2)[C@H](CO)O1
[1]
  cytotoxicity call: inactive
[2]
  growth inhibition call: inactive

## COc1ccc(NC(=O)N(C)C[C@@H]2Oc3ccc(NS(C)(=O)=O)cc3C(=O)N([C@H](C)CO)C[C@H]2C)cc1
[1]
  cytotoxicity call: inactive
[2]
  growth inhibition call: inactive

## C[C@@H]1CN([C@@H](C)CO)C(=O)c2cc(NC(=O)c3ccccc3)ccc2O[C@@H](C)CCCCO[C@@H]1CN(C)CC1CCCCC1
[1]
  cytotoxicity call: inactive
[2]
  growth inhibition call: inactive

## C[C@H](CO)N1C[C@H](C)[C@H](CN(C)Cc2ccc(Oc3ccccc3)cc2)Oc2ccc(NC(=O)CCC(F)(F)F)cc2C1=O
[1]
  cytotoxicity call: inactive
[2]
  growth inhibition call: inactive

## C[C@H]1CN([C@@H](C)CO)C(=O)Cc2cc(NC(=O)Cn3cnnn3)ccc2O[C@H]1CN(C)C(=O)Nc1ccc2c(c1)OCO2
[1]
  cytotoxicity call: inactive
[2]
  growth inhibition call: inactive

## C[C@H](CO)N1C[C@H](C)[C@H](CN(C)S(=O)(=O)c2cn(C)cn2)Oc2ncc(-c3cccc(F)c3)cc2C1=O
[1]
  cytotoxicity call: inactive
[2]
  growth inhibition call: inactive

## CCS(=O)(=O)Nc1ccc2c(c1)C(=O)N(C)[C@@H]1CC[C@H](CC(=O)N[C@H]3CCN(Cc4ccccc4)C3)O[C@H]1CO2
[1]
  cytotoxicity call: inactive
[2]
  growth inhibition call: inactive

## COc1ccc(S(=O)(=O)Nc2ccc3c(c2)C(=O)N([C@@H](C)CO)C[C@@H](C)[C@@H](CN(C)C(=O)Nc2cccc4ccccc24)OCCCC[C@H](C)O3)cc1
[1]
  cytotoxicity call: inactive
[2]
  growth inhibition call: inactive

## CC(C)C(C)C=CC(C)C1CCC2C3=CC=C4CC(O)CCC4(C)C3CCC21C (stereo not given)
[1]
  cytotoxicity call: inactive
[2]
  growth inhibition call: inactive
